# The list shows a part of the results. The list includes weakly bound sequences.
# Biological target: T1, MBP-FoxP3dN (UniProt Q99JB6)
# T1 sequence: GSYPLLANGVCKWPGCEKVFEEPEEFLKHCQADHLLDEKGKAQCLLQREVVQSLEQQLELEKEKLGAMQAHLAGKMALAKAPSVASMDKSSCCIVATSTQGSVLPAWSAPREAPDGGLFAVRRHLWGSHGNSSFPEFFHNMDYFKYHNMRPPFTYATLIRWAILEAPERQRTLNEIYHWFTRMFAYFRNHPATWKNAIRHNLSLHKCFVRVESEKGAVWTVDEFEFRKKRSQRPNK
# Experiment: PD-seq (MBP pull-down with sequencing)
# Settings: 20 mM Tris-HCl pH 7.5, 100 mM NaCl, 1.5 mM MgCl2, 0.4 uM protein, 0.1 uM dsDNA library, 30 min, room temperature, amylose pull-down; high values mean tight binding; double strand, one strand shown
row,Sequence,binding signal (RPM ratio (pull-down/input))
1,GATGATTGTTCTCCCAGCTGATGAATTAGCCTGGTCGAGTAAACAAATTTTCCTAATCTTTCTGTTCAAGCGCCATCTAC,0.399
2,GATGATTGTTCTCCCAGCTGATGAATTCCGACGTTCGAGTAAACAAATTTTCCTAATCTTTCTGTTCAAGCGCCATCTAC,0.48
3,GATGATTGTTCTCCCAGCTGATGAATTTAGTTACTCGAGTAAACAAATTTTCCTAATCTTTCTGTTCAAGCGCCATCTAC,3.04
4,GATGATTGTTCTCCCAGCTGATGAATTCGCGTATTCGAGTAAACAAATTTTCCTAATCTTTCTGTTCAAGCGCCATCTAC,1.64
5,GATGATTGTTCTCCCAGCTGATGAATTACTTTTTTCGAGTAAACAAATTTTCCTAATCTTTCTGTTCAAGCGCCATCTAC,0.47
6,GATGATTGTTCTCCCAGCTGATGAATTTAATCTCTCGAGTAAACAAATTTTCCTAATCTTTCTGTTCAAGCGCCATCTAC,0.421
7,GATGATTGTTCTCCCAGCTGATGAATTCTTTCGGTCGAGTAAACAAATTTTCCTAATCTTTCTGTTCAAGCGCCATCTAC,0.196
8,GATGATTGTTCTCCCAGCTGATGAATTATAAGGGTCGAGTAAACAAATTTTCCTAATCTTTCTGTTCAAGCGCCATCTAC,0.258
9,GATGATTGTTCTCCCAGCTGATGAATTTGACTCCTCGAGTAAACAAATTTTCCTAATCTTTCTGTTCAAGCGCCATCTAC,0.57
10,GATGATTGTTCTCCCAGCTGATGAATTGGAGAGTTCGAGTAAACAAATTTTCCTAATCTTTCTGTTCAAGCGCCATCTAC,0.343
11,GATGATTGTTCTCCCAGCTGATGAATTGCTCAGGTCGAGTAAACAAATTTTCCTAATCTTTCTGTTCAAGCGCCATCTAC,0.335
12,GATGATTGTTCTCCCAGCTGATGAATTTGTGCTCTCGAGTAAACAAATTTTCCTAATCTTTCTGTTCAAGCGCCATCTAC,2.89
13,GATGATTGTTCTCCCAGCTGATGAATTTAGTGAGTCGAGTAAACAAATTTTCCTAATCTTTCTGTTCAAGCGCCATCTAC,1.04
14,GATGATTGTTCTCCCAGCTGATGAATTTCCTTCTTCGAGTAAACAAATTTTCCTAATCTTTCTGTTCAAGCGCCATCTAC,0.258
15,GATGATTGTTCTCCCAGCTGATGAATTAGTAATCTCGAGTAAACAAATTTTCCTAATCTTTCTGTTCAAGCGCCATCTAC,1.15
16,GATGATTGTTCTCCCAGCTGATGAATTAATCGTTTCGAGTAAACAAATTTTCCTAATCTTTCTGTTCAAGCGCCATCTAC,0.808

row,Sequence,binding signal (RPM ratio (pull-down/input))
1,GATGATTGTTCTCCCAGCTGATGAATTATTTAAATCGAGTAAACAAATTTTCCTAATCTTTCTGTTCAAGCGCCATCTAC,0.323
2,GATGATTGTTCTCCCAGCTGATGAATTTCTTGTATCGAGTAAACAAATTTTCCTAATCTTTCTGTTCAAGCGCCATCTAC,0.65
3,GATGATTGTTCTCCCAGCTGATGAATTAAACCTCTCGAGTAAACAAATTTTCCTAATCTTTCTGTTCAAGCGCCATCTAC,0.339
4,GATGATTGTTCTCCCAGCTGATGAATTAGGTTCTTCGAGTAAACAAATTTTCCTAATCTTTCTGTTCAAGCGCCATCTAC,0.824
5,GATGATTGTTCTCCCAGCTGATGAATTGATTTGCTCGAGTAAACAAATTTTCCTAATCTTTCTGTTCAAGCGCCATCTAC,2.62
6,GATGATTGTTCTCCCAGCTGATGAATTGTTGGGATCGAGTAAACAAATTTTCCTAATCTTTCTGTTCAAGCGCCATCTAC,1.92
7,GATGATTGTTCTCCCAGCTGATGAATTGTCCCTGTCGAGTAAACAAATTTTCCTAATCTTTCTGTTCAAGCGCCATCTAC,0.319
8,GATGATTGTTCTCCCAGCTGATGAATTTGAATCGTCGAGTAAACAAATTTTCCTAATCTTTCTGTTCAAGCGCCATCTAC,0.521
9,GATGATTGTTCTCCCAGCTGATGAATTCTTACGCTCGAGTAAACAAATTTTCCTAATCTTTCTGTTCAAGCGCCATCTAC,0.256
10,GATGATTGTTCTCCCAGCTGATGAATTGGGCTTCTCGAGTAAACAAATTTTCCTAATCTTTCTGTTCAAGCGCCATCTAC,1.57
11,GATGATTGTTCTCCCAGCTGATGAATTCGATTAGTCGAGTAAACAAATTTTCCTAATCTTTCTGTTCAAGCGCCATCTAC,1.76
12,GATGATTGTTCTCCCAGCTGATGAATTGGCCAAGTCGAGTAAACAAATTTTCCTAATCTTTCTGTTCAAGCGCCATCTAC,0.214
13,GATGATTGTTCTCCCAGCTGATGAATTTGTGCGATCGAGTAAACAAATTTTCCTAATCTTTCTGTTCAAGCGCCATCTAC,1.1
14,GATGATTGTTCTCCCAGCTGATGAATTGAACCAATCGAGTAAACAAATTTTCCTAATCTTTCTGTTCAAGCGCCATCTAC,0.376
15,GATGATTGTTCTCCCAGCTGATGAATTTGTTCGCTCGAGTAAACAAATTTTCCTAATCTTTCTGTTCAAGCGCCATCTAC,2.28

# Reference: article PMC12820563
